Sequences and labels used below:
B1: tRNA (parent)
chain: CUCUCGGUAGCCAAGUUGGUUUAAGGCGCAAGACUUUAAUUUAUCACUACGAAAUCUUGAGAUCGGGCGUUCGACUCGCCCCCGGGAGAUUUUUUCCUCGAGCAA

This sample is rich in variants without activity.

The data set covers variants of B1. The experiment in a line: nonsense suppression (GFP-seq) (ratio to wild type); higher = more function; SUP4oc tRNA, yeast GFP reporter sort-seq. The procedure, abridged: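 Each variant's nonsense suppression (GFPSEQ) is a cell-share-weighted bin median GFP/RFP relative to the unmutated parent tRNA. Yeast with genome-integrated tRNA variants from a ~3% random-mutation library, a galactose-driven GFP ochre reporter and RFP were grown in raffinose/galactose medium with 80 mg/L adenine, then sorted into GFP/RFP bins for Illumina sequencing. Variants needed ≥100 reads and ≥30 cells.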
Take CUCUCGGUAGCCAAGUUGUUUUAAGGCGGAAGACUUUAAUUUAUCACUACGAAAGCUUGAGAUCGGGCGUUCGACUCGCCCCCGCGAGAUUUUUUCCUCGAGCAA [G19U C29G U55G G85C]: the nonsense suppression is not above 0.026.
The value for CUCUCGGUAGCCAAGUUGGAUUAAGGCGCAAGAGUUUAAUUUAUCACUACGAAAUCUUGAGAUCGGGCGUUCGACUCGCGCCCGGGAGAUUUUUUCCUCGAGCAA [U20A C34G C80G] was not above 0.026; that for CUCUCGGUAGCCAAGGUGGUUUAAGGCUCAAGACUUUAAUUUAUCACUACGAAAUCUUGAGAUCGGGCGUUCGACACGCCCCCGGGAGAUUUUUUCCUCGAGCAA [U16G G28U U76A] was not above 0.026; that for CACUCGGUAGCCAACUGGGUUUAAGGCGCAAGACUUUAAUUUAUCACUACGAAAUCUUGAGAUCGGGCGUUCGACUCGCCCCCGGGAGAUUUUUUCCUCGAGCAA [U2A G15C U17G] was not above 0.026.
On to CUCUCGGUAGCCAAGGUGGUUUAAGGCGCAAGCCUUUAAUUUAUCACUACGAAAUCUUGAGAUCGGGCGUUCGACUCGCCCCCGGGAGAUUUUUUCCUCGAGCAA [U16G A33C], for which the nonsense suppression is not above 0.026.
On to CUCUCGGUAGCCAAGUUGGUUUAAGGCGCAAGACUUUAAUUUAUCACUACGAAAACUUGAGAUCGGGCGUUCGACUCGCCCCAGGGAGAUUUUUUCCUCGAGCAA [U55A C83A], for which the nonsense suppression is not above 0.026.
On to CUCUCGUUAGCCAAGUUUGUUUAAGGCGCAAGACUUUAAUUUAUCACUACGAAAUCUUGAGAUCGGGCGUUCGACUCGCCCACGGGAGAUUUUUUCCUCGAGCAA [G7U G18U C82A], for which the nonsense suppression was not above 0.026.
Regarding CUCUCGGUAGCCAAGUUGGUUUAAGGCGCAAGACUUUAAUUUAUCACUACGAAAGCUUGAGAUCGGGCGCUCGACUCGCCCCCGGGAGAUUUUUUCCUCGAGCAA [U55G U70C], the nonsense suppression is not above 0.026.
On to CUCUCGGUAGCAAAGUUGGUUUACGGCGCAAGACUUUAAUUUAUCACUACGAAAUCUUGAGAACGGGCGUUCGACUCGCCCCCGGGAGAUUUUUUCCUCGAGCAA [C12A A24C U63A], for which the nonsense suppression is not above 0.026.
With CUCUCGGUAUCCAAGUUGGUUUAAGGCGCAAGACUUUAAUUUAUCACUACGAAAUCUUGAGAUCGUGCGUUCGACUCGCCCCCGGCAGAUUUUUUCCUCGAGCAA [G10U G66U G86C], the nonsense suppression was not above 0.026.
Take CUCUCGGUAGCCAAGUUGGUUUAAGGCGAAAGACUUUAAUUUAUCACUACGAAAUCUUGAGAUCGGGCGUUCGACGCGCCCCCGGGAGAUUUUUUCCUCGAGCAA [C29A U76G]: the nonsense suppression was not above 0.026.
As for CUCUCGGUAGCCAAUUUGGUUUAAGGCGCAAGCCUUUAAUUUAUCACUACGAAAUCUUGAGAUCGGGCGUUCGACUCGCCCCCGGGAGAUUUUUUCCUCGAGCAA [G15U A33C], the nonsense suppression is not above 0.026.
Turning to CUCUCGGUAGCCGAGGUGGUUUAAGGCGCAAGACUUUAAUUUAUCACUACGAAAUCUUGAGAUCGGGCGUUCGACUCGCCCCCGGGAGAUUUUUUCCUCGAGCAA [A13G U16G], the nonsense suppression stood at 0.207.
With CUCUCUGUAGCCAAGUUGGUUUAAGGCGCAAGACUUUAAUUUAUCACUACGAAAUCUUGAGAUCGGGCGUUCGACGCGCCCCCGGGAGAUUUUUUCCUCGAGCAA [G6U U76G], the nonsense suppression was not above 0.026.
Take CUCUCGGUAGCCAAGUUGGUUUAAGGCGCAAGACUUUAAUUUAUCACUACGAAAUCUUGAUAUCGGGCGCCCGACUCGCCCCCGGGAUAUUUUUUCCUCGAGCAA [G61U U70C U71C G88U]: the nonsense suppression is not above 0.026.
The value for CUCUCGGUAGCCAAGUUGGUUCAAGGCGCAAGACUUUAAUUUAUCACUACGAAAUCUUGAGAUCGGGCGUUCGACUCGCCCCCGGGUGAUUUUUUCCUCGAGCAA [U22C A87U] was not above 0.026; that for CACUCGGUAGCCAAGUUGGCUUAAGGCGCAAGACUUUAAUUUAUCACUACGAAAUCUUGAGAUCGGGCGUUCGACUCGCCCCCGGGAGAUUUUUUCCUCGAGCAA [U2A U20C] was not above 0.026.
The result for CUCCCGGUAGCCAACUUGUUCUAAGGCGGAAGACUUUAAUUUAUCACUACGAAAUCUUGAGCUCGGGCGUUCGACUCGCCCCCGGGAGAUUUUUUCCUCGAGCAA [U4C G15C G19U U21C C29G A62C] reads not above 0.026; that for CUCUCGGUAGCCAAGUUGGUUUAAGGCGCAAGACUUUAAUUUAUCACUACGAAAUCUUGACAUCGGGCGUUCGACUCGACCCCGGGAGAUUUUUUCCUCGAGCAA [G61C C79A], not above 0.026; that for CUCUCGGUAGCCAAGUUGGUUGACGGCGCACGACUUUAAUUUAUCACUACGAAAUCUUGAGAUCGGGCGUUCGACUCGCCCCCGGGAGAUUUUUUCCUCGAGCAA [U22G A24C A31C], not above 0.026.
With CUCUCGGUAGCCAAGUUGGUUAAAGGCGCAAGACUUUAAUUUAUCACUACGAAAUCUUGAGAUCGGGCGUUCGACUCGGCCCCGGGAUAUUUUUUCCUCGAGCAA [U22A C79G G88U], the nonsense suppression was not above 0.026.
For CUCUCGGUAACCAAGUUGGUGUAAGGCGCAAGACUUUAAUUUAUCACUACGAAAUCUUGAGAUCGGCCGUUCGACUCGACCCCGGGAGAUUUUUUCCUCGAGCAA [G10A U21G G67C C79A], the nonsense suppression was not above 0.026.
The value for CUUUCGGGAGCCAAGUUGGUUUAAGGCGCGAGACUUUAAUUUAUCACUACGAAAUCUUCAGACCGGGCGUUCUACUCGCCCCCGGGAGAUUUUUUCCUCGAGCAA [C3U U8G A30G G59C U63C G73U] was not above 0.026.
For the variant CUCUCCGUAGCCAAGUUGGUUUAAGGCGCAAGACCUUAAUUUAUCACUACGAAAUCUUGAGAUCGGGCGUUCGACUCGCCCCCGGGAGAUUUUUUCCUCGAGCAA [G6C U35C], the nonsense suppression was not above 0.026.
For CUCUCGGUAGUCAAUUUGGUUUAAGGCGCAAGACUUUAAUUUAUCACUACGAAAUCUUGAGAUCGGGCGUUCGACUCGCCCCCGGGCGAUUUUUUCCUCGAGCAA [C11U G15U A87C], the nonsense suppression was not above 0.026.
Regarding CUCUCGGUAGCCAAGUUGGUUUAAGGUUCAAGACUUUAAUUUAUCACUACGAACUCUUGAGAUCGGGCGUCCGACUCGCCCCCGGGACAUUUUUUCCUCGAGCAA [C27U G28U A54C U71C G88C], the nonsense suppression is not above 0.026.
As for CUCACGGUAGCCAAGUUGUUUUAAGGCGCAAGACUUUAAUUUAUCACUACGAAAUCUUGAGAUCGGGCGUUCGACUCGCCCCCGGGAGAUUUUUUCCUCGAGCAA [U4A G19U], the nonsense suppression was not above 0.026.

For the origin of these results see the RNAGym collection of RNA variant scans (doi:10.1101/gad.245936.114).
